# Source: the supplement of paper PMC7826260
# The other results are listed elsewhere or left out. The data describe in vitro nicking of single-stranded DNA by Rep domains (3 µM enzyme, 1 h, 37 °C); shown is the middle of each 90-letter strand. Uncut reads are compared with the no-enzyme pool on a log2 scale; uncut sequences lie near 0, cut ones below; no hit call is given. Reads are scaled to the total; where an enzyme cuts many sequences, the uncut ones exceed 0.
# Legend:
# Test in all cases: uncleaved DNA left, log2 of reads against the no-enzyme library (log2 ratio); higher = less cleavage (more negative = more Rep cleavage of the k-mer); sequences stand for … in CTCGTCCG…ACCGGAGA
# [1] = test system: T1, Rep nickase domain of Muscovy duck circovirus
# T1 sequence (residues 1-111, tag not shown): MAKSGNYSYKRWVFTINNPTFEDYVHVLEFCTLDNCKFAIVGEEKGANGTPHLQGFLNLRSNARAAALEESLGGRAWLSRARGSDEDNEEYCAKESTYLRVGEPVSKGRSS
# Method: (§1)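 A pool of 90-nt single-stranded DNAs with seven random bases just before the constant AC of the nick site (name = the seven bases) was cut by 3 µM recombinant His6-SUMO-tagged Rep nickase domain (300 nM DNA, 50 mM HEPES pH 8.0, 50 mM NaCl, 1 mM MnCl2, 1 h, 37 °C, three replicates). Uncut DNA was amplified and sequenced.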
# [2] = test system: T2, Rep nickase domain of banana bunchy top virus
# T2 sequence (residues 1-94, tag not shown): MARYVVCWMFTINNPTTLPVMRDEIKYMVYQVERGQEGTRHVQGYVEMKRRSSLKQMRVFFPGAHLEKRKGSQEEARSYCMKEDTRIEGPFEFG
# Method: as §1
# [3] = test system: T3, Rep nickase domain of cabbage leaf curl virus
# T3 sequence (residues 1-116, tag not shown): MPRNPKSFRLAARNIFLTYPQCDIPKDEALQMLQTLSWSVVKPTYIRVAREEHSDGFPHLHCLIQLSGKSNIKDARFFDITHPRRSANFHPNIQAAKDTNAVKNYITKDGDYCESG
# Method: as §1
# [4] = test system: T4, Rep nickase domain of chickpea chlorotic dwarf virus
# T4 sequence (residues 1-124, tag not shown): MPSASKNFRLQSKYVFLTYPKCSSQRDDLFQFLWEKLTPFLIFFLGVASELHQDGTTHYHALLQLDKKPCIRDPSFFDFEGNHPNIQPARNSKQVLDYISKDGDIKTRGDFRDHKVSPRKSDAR
# Method: as §1
# [5] = test system: T5, Rep nickase domain of faba bean necrotic yellows virus
# T5 sequence (residues 1-98, tag not shown): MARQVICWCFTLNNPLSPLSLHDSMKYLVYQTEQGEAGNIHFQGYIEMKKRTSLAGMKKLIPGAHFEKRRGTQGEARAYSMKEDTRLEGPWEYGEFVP
# Method: as §1
# [6] = test system: T6, Rep nickase domain of maize striate mosaic virus
# T6 sequence (residues 1-117, tag not shown): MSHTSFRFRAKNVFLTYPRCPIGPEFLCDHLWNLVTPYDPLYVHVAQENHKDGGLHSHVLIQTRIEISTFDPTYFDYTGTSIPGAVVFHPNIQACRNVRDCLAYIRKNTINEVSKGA
# Method: as §1
# [7] = test system: T7, Rep nickase domain of porcine circovirus 2
# T7 sequence (residues 2-116, tag not shown): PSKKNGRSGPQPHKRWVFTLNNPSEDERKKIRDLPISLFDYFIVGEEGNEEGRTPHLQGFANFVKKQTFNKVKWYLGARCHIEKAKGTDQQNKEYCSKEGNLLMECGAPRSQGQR
# Method: as §1
# [8] = test system: T8, Rep nickase domain of tomato golden mosaic virus
# T8 sequence (residues 1-124, tag not shown): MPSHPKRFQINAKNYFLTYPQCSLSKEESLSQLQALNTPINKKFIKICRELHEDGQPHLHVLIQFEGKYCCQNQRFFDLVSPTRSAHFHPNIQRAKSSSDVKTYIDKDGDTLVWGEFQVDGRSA
# Method: as §1
# [9] = test system: T9, Rep nickase domain of tomato yellow leaf curl virus
# T9 sequence (residues 1-136, tag not shown): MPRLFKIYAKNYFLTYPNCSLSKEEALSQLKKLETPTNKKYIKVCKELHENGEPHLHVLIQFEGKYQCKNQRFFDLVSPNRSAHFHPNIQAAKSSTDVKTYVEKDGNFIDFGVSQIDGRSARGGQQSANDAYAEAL
# Method: as §1
# [10] = test system: T10, Rep nickase domain of wheat dwarf virus
# T10 sequence (residues 1-137, tag not shown): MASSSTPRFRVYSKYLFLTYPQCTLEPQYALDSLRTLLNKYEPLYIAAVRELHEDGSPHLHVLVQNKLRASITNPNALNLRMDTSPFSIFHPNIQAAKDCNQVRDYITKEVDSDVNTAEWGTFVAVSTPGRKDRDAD
# Method: as §1
Sequence,uncleaved DNA left (log2) [1],uncleaved DNA left (log2) [2],uncleaved DNA left (log2) [3],uncleaved DNA left (log2) [4],uncleaved DNA left (log2) [5],uncleaved DNA left (log2) [6],uncleaved DNA left (log2) [7],uncleaved DNA left (log2) [8],uncleaved DNA left (log2) [9],uncleaved DNA left (log2) [10]
CACAACT,-0.19,-0.208,-0.937,-3.28,-0.106,-1.21,-2.33,-0.22,-0.148,-0.243
AATCAAT,0.0724,0.172,0.331,0.135,0.0084,0.593,-1.67,0.0582,0.108,0.0687
ACGTCGT,-0.0422,-0.0751,-0.567,-0.764,0.0224,-0.922,-0.154,-0.0924,-0.0663,-0.0264
AAGCCCT,-0.0292,0.0188,-0.0115,-1.75,-0.0547,0.204,-2.03,-0.143,-0.0937,-0.137
GATCGCG,-0.0631,-0.138,-0.777,0.704,-0.0399,-0.505,0.0444,-0.169,-0.0112,-0.107
TCGACTC,0.0935,-0.0651,0.00101,0.684,-0.2,1.23,0.0998,-0.156,0.0167,0.122
GCTCACT,-0.0423,-0.0236,0.133,-1.08,-0.0597,0.0824,-0.351,-0.0382,-0.00425,0.0899
GGGGCGA,-0.0462,0.0237,0.79,1.81,0.00482,2.16,0.215,0.102,-0.0275,0.0532
GGTGATC,-0.0719,0.00891,0.694,1.61,-0.0491,2.06,0.135,0.00546,0.0333,0.0679
TCGAGAC,0.136,0.00791,0.842,1.3,0.015,1.56,-0.0322,0.0657,0.0581,0.2
TCCGAAT,-0.163,-0.129,0.207,-0.0476,0.0598,0.165,-0.0648,-0.142,-0.0875,-0.0181
CGTCGTC,0.0685,0.0249,-0.000863,-0.0715,0.0229,-0.443,0.0517,-0.133,0.084,0.0689
AGTCGGT,0.104,0.0522,0.31,0.602,0.00301,0.931,-1.95,0.0319,0.0162,0.0906
CGCCTTC,-0.00468,-0.0271,0.00906,-0.0994,-0.0567,-0.375,0.0149,-0.129,-0.156,0.0105
TTATATT,-3.75,-2.9,-3.88,-3.66,-0.637,-2.56,-3.57,-3.39,-0.194,-3.53
TAGATTT,-0.119,-3.48,-2.95,-3.04,-3.11,-0.902,-3.8,-0.92,-0.025,-0.679
ACCTAGG,-0.174,-0.0595,-0.382,-0.0415,0.0452,-1.02,0.04,-0.0502,0.0567,-0.169
AAATTAA,-0.0822,0.00842,-0.287,-0.803,0.0413,-0.823,-0.293,0.0138,0.00553,-0.0591
TTCGCAT,-0.0384,-0.0351,-0.135,-0.576,-0.0112,-0.791,-0.0886,-0.216,0.0457,-0.124
AAAGTAC,0.0291,-0.0697,-0.136,-0.482,0.0704,-0.692,-0.0375,0.0449,-0.0476,0.00478
CAGCAGC,-0.121,-0.0477,-0.564,-0.622,-0.0907,-1.07,0.208,0.0366,-0.0807,-0.0776
GAAGATC,0.0464,-0.044,0.228,0.221,0.0256,0.663,0.000899,0.0863,0.0732,0.0919
CCACTAC,-0.047,-0.21,-0.266,-2.1,-0.0491,-0.848,0.0119,-0.127,-0.0939,-0.0841
GACCCGT,-0.00359,-0.0599,0.531,0.836,-0.067,0.63,-0.000446,0.0151,0.0316,0.084
TTACCTA,0.037,0.143,0.106,-1.98,0.101,-0.0226,-1.18,0.166,0.112,0.153
TTTTGAA,-0.128,-0.08,-0.0912,-0.675,0.0174,-0.489,-0.28,-0.0116,-0.0717,-0.0113
TCAACTG,0.038,-0.00988,0.152,0.545,0.0478,1.3,0.135,0.0377,-0.058,0.0789
GTGGACG,-0.114,0.0349,0.668,1.7,-0.0939,1.92,0.0997,-0.0183,0.0207,0.107
GGTAATT,-0.049,-0.123,0.569,1.49,-0.145,2.01,-0.066,-0.206,-0.11,-0.0371
TTCCTTT,-0.0685,-0.0929,-0.132,-1.97,-0.091,-0.425,-0.526,-0.0593,-0.0118,-0.209
